Laboratory results published in PMC4336329 (PLoS ONE, 2015).
Among all 310,000 compounds or so, about 2,200 (0.71%) showed an effect of 50% or more. The effect is printed as a negative number. Some of the results follow.

Molecular target: human ether-à-go-go-related gene (hERG) potassium channel (human, UniProt Q12809)
Test: primary screen, population patch clamp on CHO cells stably expressing hERG

Chain of human ether-à-go-go-related gene (hERG) potassium channel (Q12809 whole entry, looked up): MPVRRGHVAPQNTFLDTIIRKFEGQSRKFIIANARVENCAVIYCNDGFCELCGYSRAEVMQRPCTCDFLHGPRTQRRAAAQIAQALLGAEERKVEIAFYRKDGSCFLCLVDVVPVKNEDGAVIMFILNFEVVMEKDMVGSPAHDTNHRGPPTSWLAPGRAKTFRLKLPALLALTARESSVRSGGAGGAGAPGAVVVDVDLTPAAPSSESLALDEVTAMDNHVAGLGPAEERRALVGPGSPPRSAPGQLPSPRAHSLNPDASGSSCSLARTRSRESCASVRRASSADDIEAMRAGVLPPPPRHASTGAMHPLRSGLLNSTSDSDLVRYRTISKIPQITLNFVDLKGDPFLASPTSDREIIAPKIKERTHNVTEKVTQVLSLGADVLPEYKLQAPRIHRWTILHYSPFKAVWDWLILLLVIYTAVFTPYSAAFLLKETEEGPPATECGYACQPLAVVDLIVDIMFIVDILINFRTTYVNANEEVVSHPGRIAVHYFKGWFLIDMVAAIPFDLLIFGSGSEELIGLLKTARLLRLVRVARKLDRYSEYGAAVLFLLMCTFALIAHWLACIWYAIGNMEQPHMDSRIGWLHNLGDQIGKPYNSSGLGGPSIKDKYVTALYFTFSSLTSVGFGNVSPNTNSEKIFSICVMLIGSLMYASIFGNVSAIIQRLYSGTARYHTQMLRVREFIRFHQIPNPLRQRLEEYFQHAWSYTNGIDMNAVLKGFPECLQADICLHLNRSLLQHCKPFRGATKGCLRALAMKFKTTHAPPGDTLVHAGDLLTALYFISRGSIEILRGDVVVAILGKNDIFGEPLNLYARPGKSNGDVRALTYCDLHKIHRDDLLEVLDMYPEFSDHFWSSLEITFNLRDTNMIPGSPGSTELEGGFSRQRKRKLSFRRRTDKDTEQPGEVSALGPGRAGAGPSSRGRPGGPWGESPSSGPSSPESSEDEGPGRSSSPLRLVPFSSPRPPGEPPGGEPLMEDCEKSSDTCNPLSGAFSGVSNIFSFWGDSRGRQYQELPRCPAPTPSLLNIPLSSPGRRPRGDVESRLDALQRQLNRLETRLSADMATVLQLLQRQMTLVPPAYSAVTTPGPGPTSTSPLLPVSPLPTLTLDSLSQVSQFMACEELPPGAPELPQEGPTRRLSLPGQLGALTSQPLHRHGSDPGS

Structure (SMILES)	hERG current change (%, negative = inhibition) at 1uM
O=C(NCCN1CCOCC1)c1cc(-c2cccs2)nc2ccccc12	7.79%
CN(C)S(=O)(=O)Oc1ccsc1C(=O)Nc1ccccc1Cl	5.7%
CSc1ccc(CN2CCN(Cc3ccc([N+](=O)[O-])cc3)CC2)cc1.O=C(O)C(=O)O	-70.5%
COc1ccc2[nH]cc(C(=O)CN3CCC(C)CC3)c2c1	2.13%
CCC1CCCCN1CCCNC(=O)Cn1nc(-c2ccc(C)cc2)ccc1=O (stereo not drawn)	3.37%
Cc1cc(C(F)(F)F)n(-c2ccc(N)cc2)n1	9.14%
O=C(Nc1ccccc1C(=O)NC1CCCCC1)c1ccco1	12.5%
CCOc1ccc(C2(C)CC(=O)N(C)C2=O)cc1 (stereo not drawn)	16.5%
Cc1ccc(C(=O)NCC2(c3ccccc3)CCCC2)cc1	12.5%
COc1ccc(OC)c(NC(=O)c2cccc(NC(=O)c3ccccc3)c2)c1	13.7%
CCn1c(N2CCN(C(=O)Nc3ccc(F)cc3)CC2)nc2ccccc21	-48.4%
CC(C)C(OC(=O)c1nsc(Cl)c1Cl)C(=O)NCc1ccc2c(c1)OCO2 (stereo not drawn)	10.7%
O=C(Nc1ccccc1Oc1ccccc1)C1CC1	17.6%
CC(C(=O)NCc1cccnc1)N1C(=O)c2ccccc2C1=O (stereo not drawn)	11.2%
O=c1oc(-c2ccccc2NS(=O)(=O)c2ccc(F)cc2)nc2ccccc12	11.9%
CN(C(=O)c1cccc(S(=O)(=O)N2CCOCC2)c1)c1c(N)n(Cc2ccccc2)c(=O)[nH]c1=O	16.2%
CCn1nnnc1-c1ccc(OC)c(S(=O)(=O)Nc2ccc(C(=O)OC)cc2)c1	9.61%
Cc1c(C(=O)N2CCOCC2)sc2nc(-c3ccccc3)cn12	1.69%
CC(O)[C@H]1CNC(=O)C(=O)N1CCc1cccc(F)c1 (stereo partly drawn)	15.5%
c1cncc(CNc2ncnc3sc4c(c23)CCCC4)c1	-48.4%
COc1ccc(NC(=O)CNC(c2ccccc2)c2ccccc2)cc1.O=C(O)C(=O)O	14.5%
Fc1ccc(-c2nnc3ccc(N4CCCC4)nn23)cc1	14.9%
Cn1c(SCC(=O)OCC(=O)c2ccccc2)nnc1-c1cccs1	1.31%

Structure (SMILES)	hERG current change (%, negative = inhibition) at 1uM
COc1ccc(C)cc1NC(=O)c1nn(-c2ccccc2)cc1OC	11.5%
CC1CCCCC1NCC#CCOc1ccc(Cl)cc1.O=C(O)C(=O)O (stereo not drawn)	2.89%
CCCCn1c(NCc2ccccc2NS(=O)(=O)c2ccc(C)cc2)nc2ccccc21	7.01%
C/C(=N\NC(=O)CCc1ccccc1)C1C(=O)c2ccccc2C1=O	6.76%
Cn1c(=O)[nH]c(=O)c2c1nc1n2CC(O)CN1c1ccccc1 (stereo not drawn)	9%
COc1ccc(-c2cc(C(F)F)nc(-n3nc(C)cc3C)n2)cc1	11.6%
O=C(COC(=O)c1ccc2c(=O)n3c(nc2c1)CCC3)Nc1ccc(OC(F)F)cc1	3.79%
O=C(Nc1ccccc1Cl)NC1(C(=O)N2CCCC2)CCCCC1	-5.95%
CCCCC(=O)NNC(=O)N1c2ccccc2Sc2ccccc21	6.8%
COc1ccc(C(=O)C2CCCN(C(=O)c3cc(C)nc(C)n3)C2)cc1OC (stereo not drawn)	15.6%
CC(C)Cc1nc(N2CCNCC2)c(C#N)c2c1CCC2	-0.291%
COc1cc(C)ccc1OCCCOc1ccccc1Cl	10.7%
Cc1n[nH]c(C)c1CN(C)C(=O)c1cc(COc2ccc(F)c(F)c2)on1	-4.67%
CCOC(=O)C1=C(COC(=O)[C@H](C)NS(=O)(=O)c2ccc(NC(C)=O)cc2)NC(=O)NC1C (stereo partly drawn)	19.4%
COc1ccc2c(c1OC)CN1CCc3cc4c(cc3[C@H]1C2)OCO4	3.13%
Cc1cc(NC(=O)CSc2nnnn2-c2ccc(C)c(Cl)c2)no1	9.52%
CCOc1ccc(CCNC(=O)c2ccc(CS(=O)Cc3cccc(Cl)c3)o2)cc1 (stereo not drawn)	1.57%
Cc1ccc(CNS(=O)(=O)c2c(C)[nH]c(C)c2C(=O)N2CCCC2)cc1	7.8%
CN(C)/C=N/c1sc2c(c1C(N)=O)CCCC2	16.5%
Cc1cc(N/C=C/C(=O)c2ccccc2)ccc1Br	5.69%
CN1CCN(c2ccc([N+](=O)[O-])cc2NC(=O)c2cccs2)CC1	-14.2%
COc1ccccc1CC(=O)NC1CCN(Cc2ccccc2)CC1	11.1%
